Source: paper PMC4336329 (PLoS ONE, 2015)
Hit rate of the full screen: of about 310,000 compounds, about 14,000 (4.5%) showed an effect of 50% or more. Effects have a minus sign here. This is one part of the list.

Molecular target: human ether-à-go-go-related gene (hERG) potassium channel (human, UniProt Q12809)
Assay: primary screen, population patch clamp on CHO cells stably expressing hERG
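Further: peak tail current of the secondary pulse compared with the same well before compound.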

Sequence of human ether-à-go-go-related gene (hERG) potassium channel (Q12809 whole entry, looked up): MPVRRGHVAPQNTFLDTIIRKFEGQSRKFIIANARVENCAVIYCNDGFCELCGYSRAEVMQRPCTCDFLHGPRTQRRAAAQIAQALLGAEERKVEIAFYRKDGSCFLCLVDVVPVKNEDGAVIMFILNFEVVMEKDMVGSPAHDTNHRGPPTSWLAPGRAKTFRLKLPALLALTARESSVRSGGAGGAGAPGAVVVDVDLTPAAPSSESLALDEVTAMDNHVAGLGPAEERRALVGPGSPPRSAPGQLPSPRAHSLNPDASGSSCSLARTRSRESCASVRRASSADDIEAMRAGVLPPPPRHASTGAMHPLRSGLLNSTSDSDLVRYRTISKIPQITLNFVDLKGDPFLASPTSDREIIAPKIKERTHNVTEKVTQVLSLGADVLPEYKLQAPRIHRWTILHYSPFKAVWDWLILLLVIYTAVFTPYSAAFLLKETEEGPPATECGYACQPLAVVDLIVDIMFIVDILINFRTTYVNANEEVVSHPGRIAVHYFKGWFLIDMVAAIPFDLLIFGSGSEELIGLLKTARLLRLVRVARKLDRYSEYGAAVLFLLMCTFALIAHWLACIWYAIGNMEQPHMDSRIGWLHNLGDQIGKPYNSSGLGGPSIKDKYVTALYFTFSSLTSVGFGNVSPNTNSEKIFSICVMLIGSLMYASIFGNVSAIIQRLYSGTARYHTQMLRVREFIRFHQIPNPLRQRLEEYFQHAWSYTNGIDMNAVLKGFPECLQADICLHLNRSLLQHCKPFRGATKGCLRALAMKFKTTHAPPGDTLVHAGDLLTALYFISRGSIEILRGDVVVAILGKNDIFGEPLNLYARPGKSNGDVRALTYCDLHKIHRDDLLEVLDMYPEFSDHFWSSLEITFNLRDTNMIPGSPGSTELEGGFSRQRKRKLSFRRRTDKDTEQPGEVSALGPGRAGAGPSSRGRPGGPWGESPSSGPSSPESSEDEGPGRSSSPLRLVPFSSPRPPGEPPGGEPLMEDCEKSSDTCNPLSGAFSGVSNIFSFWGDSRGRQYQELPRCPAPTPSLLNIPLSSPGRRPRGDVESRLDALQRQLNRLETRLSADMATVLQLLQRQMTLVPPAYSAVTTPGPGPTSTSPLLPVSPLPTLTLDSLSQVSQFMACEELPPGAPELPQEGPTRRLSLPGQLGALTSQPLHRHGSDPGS

Compound	hERG current change (%, negative = inhibition) at 10uM [%]
O=C(CNC(=O)c1cccc(F)c1)N/N=C/c1cccc([N+](=O)[O-])c1	-23.4
CCCOc1ccc(Br)cc1CSC(=N)N.Cl	-41.7
CN(Cc1ccccc1)S(=O)(=O)c1ccc(OCC(=O)NCc2cccnc2)cc1	0.509
O=S(=O)(Nc1cc(F)ccc1F)c1cccc2nsnc12	11.6
COC(=O)c1cc(NC(=O)c2cccc(Cl)c2)c(=O)oc1/C=C/Nc1cc(C)cc(C)c1	12.6
Cc1nn(Cc2c(F)c(F)c(F)c(F)c2F)c(C)c1NC(=O)c1nn(C)c(C)c1Br	1.34
CN1CCN(C(=S)c2ccc(-c3cccc(Cl)c3Cl)o2)CC1	-23.6
Cc1ccc(-c2nnc(SCC(=O)NC3CCCc4ccccc43)n2N)cc1 (stereo not drawn)	-31.5
Cc1ccc(S(=O)(=O)N(C)Cc2ccc(C(=O)NN=C(CC(C)C)CC(C)C)cc2)cc1	-19.9
COc1cccc(C(=O)Oc2cc(C)[nH]c(=O)c2[N+](=O)[O-])c1OC	6.93
COc1ccccc1C(=O)NC(=S)Nc1ccc(Cc2ccncc2)cc1	15
CCOC(=O)c1sc2nc(C)nc(Nc3ccccc3)c2c1C.Cl	5.43
Cc1ccc(C)c(NC(=O)Cn2nc([N+](=O)[O-])c(Br)c2C)c1	-9.68
O=C(CSc1nnc(-c2ccccc2)o1)NC1CC1	10.9
COc1ccc2nc(NC(=O)C3CC(=O)N(c4ccccc4)C3)sc2c1 (stereo not drawn)	-51.7
CC1CN(C(=O)N2CCOCC2)CCN1C(=O)N1CCOCC1 (stereo not drawn)	10.2
O=C(N/C(=C/c1cn(-c2ccccc2)nc1-c1ccccc1)C(=O)N1CCOCC1)c1ccc(Cl)cc1Cl	17.7
CCCC(=O)c1c(NCCO)cc(C)oc1=O	11.7
CS(=O)(=O)c1cccc(C(=O)OCC(=O)NCc2cccs2)c1	-4.72
Cc1ccc(S(=O)(=O)N(C)C)cc1NC(=O)Cn1c(CN2CCOCC2)nc2ccccc2c1=O	7.93
CS(=O)(=O)N(CC(=O)N1CCc2ccccc2C1)c1ccccc1F	-8.33
O=S(=O)(c1cccc(-c2nc3ccccc3s2)c1)N1CCCC1	0.88

Compound	hERG current change (%, negative = inhibition) at 10uM [%]
O=C(NCc1ccon1)C1CCC(=O)N(CCc2ccc(Cl)cc2)C1 (stereo not drawn)	-37.2
CC(=O)N1CCc2cc(S(=O)(=O)N3CCc4ccccc4C3)ccc21	8.21
Cc1ccc(OCC(=O)NNC(=O)c2ccccc2OCc2c(C)noc2C)cc1	-16.3
Cc1c(-c2ccccc2)[n+](=O)c2c(n1[O-])CCCCC2	4.96
CCn1cc(C(=O)OCC(=O)c2cc(C)n(-c3ccccc3F)c2C)c(=O)c2ccc(C)nc21	-12.8
Cc1ccc(C(=O)NCCc2nnc3ccc(SCC(=O)N4CCCC4)nn23)cc1	0.507
Cc1cc(-c2ccc(Cl)cc2)n2nc(N)nc2n1	-10
O=c1[nH]c2cc3c(cc2cc1CN(Cc1nnnn1CC1CCCO1)C1CCCC1)OCO3 (stereo not drawn)	-4.9
Cc1ccc(C(=O)NCC(=O)OCC(=O)NC2CCS(=O)(=O)C2)cc1C (stereo not drawn)	12.8
COc1ccc(N/C=C(\C#N)S(=O)(=O)c2ccc(OC)cc2)cc1	3.33
CC1=NN(C(=O)COc2cc(C)ccc2C(C)C)C(O)(c2ccccc2)C1 (stereo not drawn)	-0.75
CCOc1ccc(NS(=O)(=O)c2ccc(C(=O)N3CCN(C(C)=O)CC3)cc2)cc1	26.6
CCOC(=O)C(Cc1c[nH]c2ccccc12)NC(=O)CNC(C)=O (stereo not drawn)	-20.6
CCOC(=O)c1c(O)cc(C)[nH]c1=O	23.8
COc1cccc(-c2noc(Cn3nc(C(=O)O)c4ccccc4c3=O)n2)c1	-0.0317
O=C(CCCCC(=O)N1CCOCCOCCOCC1)OCc1ccccc1	2.33
CC(C)Oc1ccc(C(CC(=O)O)n2cnnn2)cc1 (stereo not drawn)	19.7
CN(c1ccccc1C(N)=O)S(=O)(=O)c1ccccc1	11
C=CCS/C(=N\n1cnc2ccccc2c1=O)N1CCCCC1	-17.1
O=C1C2CCCCC2C(=O)N1c1ccc(S(=O)(=O)Nc2ncccn2)cc1 (stereo not drawn)	-1.48
Cc1cccc(OCC(=O)Nc2ccc(S(=O)(=O)Nc3ccccn3)cc2)c1	8.15
CC(C)C[C@H]1CN=C(Nc2ccccc2)N1CCCC1CCCC1	-65.9

Compound	hERG current change (%, negative = inhibition) at 10uM [%]
CCn1c(=NC(=O)CSC(C)=O)sc2cc(F)ccc21	-29.6
NC(=O)CSc1oc(-c2cccs2)nc1S(=O)(=O)c1ccccc1	-15.5
COc1ccc(N2CCN(CC(O)COc3cc(C)cc(C)c3)CC2)cc1.Cl (stereo not drawn)	-48.8
CC12CCC(C(=O)Nc3ccccc3-n3cccc3)(CC1=O)C2(C)C (stereo not drawn)	0.661
CCOc1ccc(Oc2ccccc2NC(=O)CN2C(=O)NC3(CCCC3)C2=O)cc1	-15.8
CC(C)[C@H](NC(=O)c1ccc(F)cc1)C(=O)N(C)Cc1cccs1	-13.8
C=C(C)C1CC=C(C)/C(=N/NC(=O)c2ccccc2[N+](=O)[O-])C1 (stereo not drawn)	10.3
CCCc1ccc2oc(C(=O)N(C)Cc3cnccn3)c(C)c2c1	-10.9
c1ccc(-n2cnc3cc(NCc4ccco4)ccc32)cc1	-49.8
COc1cc(C(C)=O)ccc1OC(=O)C(C)N1C(=O)c2ccccc2C1=O (stereo not drawn)	-13
CCC1CCCCN1CCCNC(=O)c1ccc(CS(=O)(=O)Cc2ccc(Cl)cc2)o1 (stereo not drawn)	-34.5
CCC(=O)N1CCc2cc(S(=O)(=O)NCCN3CCCCC3CC)ccc21 (stereo not drawn)	-17.5
COC(=O)C1C(=O)c2c(n[nH]c2C)CC1(C)C (stereo not drawn)	33.5
CC1CC(C)(C)NC(=S)N1CCCC(=O)N1CCN(c2ccc(F)cc2)CC1 (stereo not drawn)	-20.8
Cc1ccc(-c2nnc(CN3CCN(C)CC3)o2)cc1	-3.18
CC(C)Cn1c(O)c2ccc(C(=O)N=NC(=O)c3cccnc3)cc2c1O	17
COCCN(C(=O)/C=C/c1cccc([N+](=O)[O-])c1)c1c(N)n(Cc2ccccc2)c(=O)[nH]c1=O	-8.98
C/[N+]([O-])=C\c1coc2ccccc2c1=O	-1.4
Cl.OCCCNCc1ccc(-c2ccccc2)cc1	-2.16
O=C(Nc1cccc(S(=O)(=O)N2CCOCC2)c1)c1cnccn1	-13.7
CCOc1ccc(CCNC(=O)C2=C(C)C(=O)OC23CCCCC3)cc1OCC	19.4
COc1cc2c(cc1OC)C(c1c(O)n(CCc3ccccc3)c(=S)[nH]c1=O)NCC2 (stereo not drawn)	18

Compound	hERG current change (%, negative = inhibition) at 10uM [%]
COc1ccc(OCC(O)Cn2c(N)nc3c2c(=O)[nH]c(=O)n3C)cc1 (stereo not drawn)	6.58
O=C(COc1ccccc1)NCC(=O)N/N=C/c1cc(Br)ccc1OCc1ccccc1	14
COc1ccc(Br)cc1C(=O)Nc1ccc(N2CCCC2)cc1	24.1
COCCC(=O)N1CCC(Oc2ccc(C(=O)N3CCCC(OC)C3)cc2)CC1 (stereo not drawn)	9.12
O=C1NC(=O)N(CCNc2ncc(C(F)(F)F)cc2Cl)C(=O)C1Cc1ccc(Cl)cc1 (stereo not drawn)	13.7
COc1ccc(NC(C)=O)cc1CNC(=O)COc1c(C)c(C)cc(C)c1C	4.48
CCN1CCN(C(=O)c2cc3cc4cc(OC)ccc4nc3s2)CC1	-20.8
Cc1ccc(S(=O)(=O)N2CCC(C(=O)Nc3ccc(C(C)C)cc3)CC2)cc1	-11.5
O=C(NCC(=O)N1CCN(c2ccccc2)CC1)c1cccs1	3.44
O=C(O)C1C2CCC(O2)C1C(=O)Nc1cccc(Br)c1 (stereo not drawn)	24.4
COc1ccc(CN2CC(C(=O)NCc3ccc4c(c3)OCO4)CC2=O)cc1 (stereo not drawn)	-44.8
COc1ccc2nc3cc(Cl)ccc3c(Nc3cc(CN4CCCC4)c(O)c(CN4CCCC4)c3)c2n1.O=P(O)(O)O	-48
CC1(C)C(=O)Nc2ccccc2N1C(=O)COC(=O)c1cc(S(=O)(=O)N2CCOCC2)ccc1F	23.3
O=C(Nc1ccccc1)c1ccc(-c2ccc(F)cc2)s1	-5.33
O=C(c1ccc(-c2ccccc2)cc1)C1CCCN(Cc2ccncc2)C1 (stereo not drawn)	-62.6
O=C(/C=C/c1ccc([N+](=O)[O-])cc1)N1CCN(S(=O)(=O)c2ccccc2)CC1	-34.1
CCCCCCCCC(=O)O	16
Cc1ccc(OCCn2c(C)nc3ccccc32)cc1	3.94
CCOc1cc(/C=N\NC(=O)OC(C)(C)C)ccc1OC(=O)c1ccco1	14.8
O=C(NC1CCCC1)C(c1ccco1)N(Cc1ccccc1)C(=O)c1csnn1 (stereo not drawn)	-19.6
O=C(Cc1ccccc1)NNS(=O)(=O)c1ccc([N+](=O)[O-])cc1	14.2
